# Among all 310,000 compounds or so, about 14,000 (4.5%) showed an effect of 50% or more. The effect is printed as a negative number. The list shows a part of the results. Where a SMILES comes first, the peptide text is derived from it. The star is where a group is joined. Boc = CC(C)(C)OC(=O)*
# Biological target: human ether-à-go-go-related gene (hERG) potassium channel (human, UniProt Q12809)
# Test: primary screen, population patch clamp on CHO cells stably expressing hERG
# 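Note: peak tail current of the secondary pulse compared with the same well before compound.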
# Chain of human ether-à-go-go-related gene (hERG) potassium channel (Q12809 whole entry, looked up): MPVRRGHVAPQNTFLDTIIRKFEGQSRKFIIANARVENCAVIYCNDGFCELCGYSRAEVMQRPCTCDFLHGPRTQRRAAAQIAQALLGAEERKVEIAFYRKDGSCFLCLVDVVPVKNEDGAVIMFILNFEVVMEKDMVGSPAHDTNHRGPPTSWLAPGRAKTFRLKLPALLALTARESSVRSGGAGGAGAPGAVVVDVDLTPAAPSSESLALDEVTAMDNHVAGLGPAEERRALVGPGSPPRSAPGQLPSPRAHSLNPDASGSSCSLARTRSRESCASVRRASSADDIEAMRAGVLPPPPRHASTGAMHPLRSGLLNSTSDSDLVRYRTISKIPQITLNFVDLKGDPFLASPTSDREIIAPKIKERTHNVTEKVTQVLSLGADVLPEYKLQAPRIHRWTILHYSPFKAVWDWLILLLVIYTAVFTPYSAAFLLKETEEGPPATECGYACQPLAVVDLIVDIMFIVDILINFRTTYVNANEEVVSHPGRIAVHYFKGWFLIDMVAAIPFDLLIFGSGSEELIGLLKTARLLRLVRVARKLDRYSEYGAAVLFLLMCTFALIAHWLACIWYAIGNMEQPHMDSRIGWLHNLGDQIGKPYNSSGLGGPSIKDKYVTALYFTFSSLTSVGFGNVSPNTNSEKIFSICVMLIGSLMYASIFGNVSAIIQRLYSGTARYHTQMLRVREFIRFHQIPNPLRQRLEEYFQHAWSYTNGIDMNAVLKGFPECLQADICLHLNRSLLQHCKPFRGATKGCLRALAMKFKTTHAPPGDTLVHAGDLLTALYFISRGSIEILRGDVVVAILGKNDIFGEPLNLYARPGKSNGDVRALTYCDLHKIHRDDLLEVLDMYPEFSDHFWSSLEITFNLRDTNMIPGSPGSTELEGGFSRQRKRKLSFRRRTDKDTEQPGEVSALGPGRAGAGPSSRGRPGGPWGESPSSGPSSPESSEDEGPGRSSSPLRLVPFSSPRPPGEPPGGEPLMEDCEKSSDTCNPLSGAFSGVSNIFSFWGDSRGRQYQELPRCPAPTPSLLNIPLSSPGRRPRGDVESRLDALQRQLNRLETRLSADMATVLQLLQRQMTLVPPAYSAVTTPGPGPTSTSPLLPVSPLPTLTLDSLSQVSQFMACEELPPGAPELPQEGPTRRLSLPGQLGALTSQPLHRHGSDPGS
row,SMILES,"hERG current change (%, negative = inhibition) at 10uM [%]"
1,CCc1ccc(/C([O-])=C(/C(=S)NCCN2CCOCC2)[n+]2ccccc2)cc1,16.8
2,COc1ccccc1C(=O)NNC(=O)C(=O)N1CCCCC1,3.18
3,Fc1cnc(N/N=C/c2ccc(-c3ccc(Br)cc3)o2)nc1N1CCOCC1,-15.8
4,CC(C)Oc1cccc(C(=O)N/N=C/c2coc3ccccc3c2=O)c1,8.17
5,COc1ccc(-c2csc(Nc3ccc(C)cn3)n2)cc1,10.3
6,Nc1cc(=O)[nH]c(SCC(=O)N2CCCc3ccccc32)n1,7.33
7,O=C(NCCN1CCN(Cc2ccccc2)CC1)C1c2ccccc2C(=O)N2CCc3ccccc3C12 (stereo not drawn),-14.5
8,COC(=O)c1cc(C(=O)OCC(=O)NC(=O)NCc2ccccc2)cc([N+](=O)[O-])c1,1.58
9,Cc1ccc(Oc2ncnc(N)c2[N+](=O)[O-])cc1,4.67
10,COc1ccc(C)cc1S(=O)(=O)Nc1cccc(C)c1,9.91
11,CCOC(=O)c1cnc(SC)nc1N1CCCC1,-21
12,CCC(=O)N1CCc2cc(S(=O)(=O)NCCC(=O)N3CCN(c4ccccc4)CC3)ccc21,11.5
13,COC(=O)c1cc(NC(=O)c2cc(-c3ccccc3Cl)oc2C(F)(F)F)ccc1N1CCOCC1,12.9
14,Cc1cccc(C)c1OCC(=O)N/N=C/c1ccc2c(c1)OCO2,8.9
15,COC(=O)C1=C(C)NC(=O)NC1c1ccc(-c2ccc(Cl)cc2)o1 (stereo not drawn),23
16,Cc1c(C(=O)O)sc2nc(CSc3ncc(C(F)(F)F)cc3Cl)[nH]c(=O)c12,7.32
17,CCOC(=O)N1CCN(C(=O)CS(=O)Cc2nc(-c3cccc(C)c3)oc2C)CC1 (stereo not drawn),-9.37
18,Cc1nn(CCc2nn[nH]n2)c2nc(-c3ccccc3)cc(C(F)(F)F)c12,19.3
19,O=C(NCc1ccccc1)C1CCCN(S(=O)(=O)c2cccnc2)C1 (stereo not drawn),-4.34
20,O=C(CNC(=O)c1cccnc1)N/N=C/c1cc(Br)c(O)c(Br)c1,24.5
21,CC(C)CC(NC(=O)OC(C)(C)C)C(=O)NC(C(=O)N1CCCC1C(N)=O)C(C)C (stereo not drawn) (Boc-Leu-Val-Pro-NH2; configuration not given here),-2.48
22,CN(C)C(=O)CSc1nc2ccccc2n1CC(=O)N1CCN(c2ccccc2)CC1,-4.54
23,N#Cc1ccc(CN2C(=O)NC3(CCCCCC3)C2=O)cc1,-32.2
24,O=C(Nc1cccc(S(=O)(=O)NC2=NCCCCC2)c1)c1cccnc1Cl,10.9
25,O=C(Nc1ccc(Br)cc1Cl)Nn1cnnc1,-5.52
26,CC(C)(C)n1nc2c(c1NC(=O)c1c(F)cccc1F)CS(=O)(=O)C2,8.85
27,Fc1ccc(-c2csc3ncnc(N4CCN(c5ccccc5)CC4)c23)cc1,16.2

row,SMILES,"hERG current change (%, negative = inhibition) at 10uM [%]"
1,Cc1ccc(CNC(=O)/C(C#N)=C/c2ccc(C)s2)cc1,7.38
2,COc1ccc(OCC(=O)N2CCC(n3nccc3NC(=O)C3CC3)CC2)cc1,1.44
3,COc1cc(NC(=O)CN2C(=O)NC(c3ccccc3)(c3ccccc3)C2=O)cc(OC)c1,5.79
4,O=C(CN1CCN(C(=O)c2ccco2)CC1)Nc1ccc(Cl)c(S(=O)(=O)N2CCOCC2)c1,-25.6
5,CC(C)COc1cccc(C(=O)N2CCN(C(=O)c3ccco3)CC2)c1,-43.6
6,Cl.OC(COc1ccc2c(c1)OCO2)CN1CCN(c2ccc(F)cc2)CC1 (stereo not drawn),-66.1
7,O=C(CCNC(=O)c1ccccc1Cl)Nc1nc2ccccc2s1,1.57
8,COc1ccc(/C=N/NC(=O)c2cc(C)on2)c2ccccc12,1.7
9,Cc1cc2c(sc3ccccc32)c(C)n1.Cl,-11.3
10,Cc1cc(C)c(S(=O)(=O)NCC(c2cccnc2)N2CCN(Cc3ccccc3)CC2)c(C)c1 (stereo not drawn),-69.5
11,CCCCn1c(N)c(N(CCOC)C(=O)c2cc(-c3ccccc3)nc3ccccc23)c(=O)[nH]c1=O,-3.37
12,CCNc1nc(SCC(=O)OC)nc(N(C)C)n1,-1.26
13,Cc1ccc(S(=O)(=O)Nc2ccc3c(c2)nc(CCN2CCOCC2)n3C)cc1,-17.2
14,Cc1ccc(CNC(=O)NC23CC4CC(CC(C4)C2)C3)cc1,7.24
15,NS(=O)(=O)c1ccc(CCNC(=O)CNC(=O)COc2ccccc2)cc1,15.7
16,CN1CCN(S(=O)(=O)c2cccc(C(=O)Oc3cccc(Br)c3)c2)CC1,-26.9
17,CN(C)/C=N/c1nc2nccc(-c3cccnc3)n2n1,-2.98
18,C/C(=N/OC(=O)C1CC1)c1cc(-c2ccc(Cl)cc2)no1,10.7
19,CC(=O)c1ccc(N2CCN(C(=O)c3ccc(Cn4c(=S)[nH]c5ccc(N6CCOCC6)cc5c4=O)cc3)CC2)cc1,3.26
20,COc1ccc(C(=O)COC(=O)Cn2nnc3ccccc32)cc1Br,-2.3
21,CCOC(=O)/C(Sc1nc(-c2ccccc2)cc(-c2ccccc2)c1C#N)=C(\C)O,15
22,COc1cc2c(c(OC)c1OC)CC(=O)N(C)CC2,5.56
23,O=C(CN1C(=O)CSc2ccccc21)N1CCc2ccccc21,1.76
24,CCOc1ccc(-c2nnn(CCC(=O)O)n2)cc1OC,6.95
25,CCOc1ccccc1Nc1nc2ccccc2n2cnnc12,8.87
26,C#CCSc1nnc(-c2sc(-c3ccccc3)nc2C)n1C,-26.9
27,COc1cc(CN(C)CCc2ccccc2)ccc1OCc1ccccc1,-72

# Reference: article PMC4336329 (PLoS ONE, 2015)
